Measured values: PubChem BioAssay AID1671194 (National Center for Advancing Translational Sciences (NCATS), 2021)
Hit rate of the full screen: of about 140,000 compounds, about 240 (0.17%) were called active. The shares of active, inactive and inconclusive entries below differ from those in the screen. Calls come from the whole dose curve; as a rule, active = well fitted inhibition curve with a large enough effect; inconclusive = small, poorly fitted or top-dose-only effect; inactive = no such curve, though single readings can be large or run the other way. Potencies beside an inconclusive call are fits to weak or partial responses and may not hold up.

Experiment: Primary qHTS assay for inhibitors of alpha-synuclein gene (SNCA) expression; note: nearly all actives have a fitted effect of over 45% in size;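 for activity change, negative = inhibition: plate controls were DMSO cells for no effect and cell-free wells for full effect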
Details: HEK-293 SNCA-luciferase knock-in, luminescence, 24 h; activity change, negative = inhibition: at 57.2 µM (top of the series) unless noted
Potency is the fitted concentration of half-maximal effect; tags give direction and shape of the fitted curve.

Row | Compound | Potency | activity change, negative = inhibition
1 | Cc1cccc(N2CCN(S(=O)(=O)c3ccc4c(c3)C(C(C)C)C(=O)N4)CC2)c1C (centres undefined) | inconclusive: 25.1 µM [inhibitor, single point] | 
2 | O=C(NCc1ccccc1F)c1nc2sccn2c1-c1cccc(C(F)(F)F)c1 |  | inactive: 67.2%
3 | O=C([C@@H]1COCC(=O)N1Cc1ccccc1)N1CCN(Cc2ccc3c(c2)OCO3)CC1 | inconclusive: 6.31 µM [inhibitor, partial curve] | 
4 | COc1ccccc1-c1nc(C(=O)N2CCN(c3ncccn3)CC2)n2ccccc12 | inconclusive: 39.8 µM [inhibitor, single point] | 
5 | Cn1cccc1CN1CCC2(CC1)CN(c1ncccn1)CC2CO (centres undefined) |  | inactive: -22.1%
6 | COc1ccc(NC(=O)Cc2c[nH]c3ncc(-c4ccccc4C)cc23)cc1 | inconclusive: 12.6 µM [inhibitor, partial curve, poor fit] | 
7 | CCOc1ccccc1CNC(=O)c1cc(NC(C)=O)cc2nc(C)ccc12 |  | inactive: 5.18%
8 | COc1ccc(S(=O)(=O)c2c(Nc3c(C)cccc3C)sc(C(=O)c3ccc4c(c3)OCO4)c2N)cc1 | inconclusive: 1.78 µM [inhibitor, full curve] | 
9 | COc1ccc(C(=O)N2CCC3(CC2)N=C(c2cccc(Br)c2)NO3)cc1OC | inconclusive: 39.8 µM [inhibitor, single point] | 
10 | COc1ccc(C(=O)Nc2cccc(-c3nnc4n3CCCC4)c2)c(C)c1 | inconclusive: 3.16 µM [inhibitor, partial curve, poor fit] | 
11 | O=c1cc(-c2ccccn2)oc2c(NC3CCOCC3)nccc12 |  | inactive: -11.1% [at 87.6 µM]
12 | O=C(c1ccc(F)cc1Cl)N1CCN(c2cc(C(F)(F)F)ncn2)CC1 | inconclusive: 8.91 µM [inhibitor, full curve, poor fit] | 
13 | O=C(Nc1cccc(Cl)c1)C1CCCN(c2nn3cc(-c4ccc(F)cc4)nc3s2)C1 (centres undefined) | inconclusive: 39.8 µM [inhibitor, single point] | 
14 | CCOC(=O)c1ccc(NC(=O)c2ccc3c(c2)N(CC)C2CCCCN2C3=O)cc1 (centres undefined) | inconclusive: 39.8 µM [inhibitor, single point] | 
15 | O=C1NCCN1C1CCN(Cc2ccccc2)CC1 | inconclusive: 2.82 µM [inhibitor, full curve] | 
16 | CN(Cc1ccc(N2CCCCC2)cc1)C(=O)CCC[C@H]1NC[C@@H]2C[C@H]1CN(Cc1ccccc1)C2 | inconclusive: 39.8 µM [inhibitor, single point] | 
17 | C#CCNC(=O)c1ccc2nccn2c1 |  | inactive: 8.12% [at 87.6 µM]
18 | C[C@H]1CCCN1C(=O)c1nnc(COc2ccc(F)c(F)c2)n1-c1cccnc1 |  | inactive: 22.2% [at 87.6 µM]
19 | COc1ccc(CN2CCc3nc(C4CC4)nc(-c4ccc(O)cc4)c3CC2)cc1 | inconclusive: 1.78 µM [inhibitor, full curve, poor fit] | 
20 | CNC(=O)CCn1ncc2cc(OC3CCc4cccc(-c5ccc(OC)cc5)c43)ccc21 (centres undefined) | inconclusive: 56.2 µM [inhibitor, single point] | 

Row | Compound | Potency | activity change, negative = inhibition
21 | Cc1noc(C)c1[S+](=O)([O-])N1CC(Oc2ccc(F)c(F)c2)C1 | inconclusive: 22.4 µM [inhibitor, partial curve, poor fit] | 
22 | COCc1nc(C2CCCN(C(=O)CC3CCCCC3)C2)no1 (centres undefined) | inconclusive: 11.2 µM [inhibitor, partial curve, poor fit] | 
23 | O=C(C1CCCN([S+](=O)([O-])c2cccc(C(F)(F)F)c2)C1)N1CCCC(c2nc3ccncc3[nH]2)C1 (centres undefined) | inconclusive: 20 µM [inhibitor, single point] | 
24 | CN(C)c1ccc(-c2nnnn2[C@H]2CO[C@H]3[C@@H]2OC[C@H]3OC(=O)Nc2cccc(C#N)c2)cc1 |  | inactive: 4.17%
25 | O=C(Nc1cccc(C(F)(F)F)c1)N[C@H]1CO[C@H]2[C@@H]1OC[C@@H]2Nc1nccc(-c2ccc(-c3ccccc3)cc2)n1 | inconclusive: 17.8 µM [inhibitor, partial curve, poor fit] | 
26 | O=C(NCc1cccc(Cl)c1)C1CN(c2ccc(F)cc2)C(=O)N1 (centres undefined) | inconclusive: 3.16 µM [inhibitor, partial curve, poor fit] | 
27 | Cn1ccc2c(C(=O)NCC3CCOCC3)nc(-c3cccc(N4CCOCC4)c3)cc21 | inconclusive: 5.01 µM [inhibitor, full curve] | 
28 | Cc1ccc(N(Cc2cccs2)C(=O)C(C)Oc2ccc(Cl)c(C)c2)cc1 (centres undefined) | inconclusive: 39.8 µM [inhibitor, single point] | 
29 | COc1ccccc1Nc1ccnc(N2CCC(C(=O)NC3CCCC3)CC2)n1 | inconclusive: 12.6 µM [inhibitor, partial curve, poor fit] | 
30 | O=C(NC[C@H]1Cn2cc(-c3ccccc3)nc2CO1)c1ccc2c(c1)OCO2 |  | inactive: -26.6% [at 87.6 µM]
31 | O=C(C1CN(c2ccc(F)cc2)C(=O)N1)N1CCN(Cc2ccccc2)CC1 (centres undefined) | inconclusive: 20 µM [inhibitor, single point] | 
32 | COc1ccccc1Nc1ccnc(N2CCCC2C(=O)NCc2ccc(F)cc2)n1 (centres undefined) |  | inactive: -6.16%
33 | Cc1ccc(-c2onc(C)c2C)cc1S(=O)(=O)N1CCOc2ccc(Cl)cc21 | inconclusive: 39.8 µM [inhibitor, single point] | 
34 | COc1cc(N2CCN(C)CC2)ccc1Nc1nc(N)c(C(=O)c2c(Cl)cccc2Cl)s1 | inconclusive: 19.2 µM [inhibitor, partial curve, poor fit] | 
35 | Cc1[nH]c(C=C2C(=O)Nc3ccc(S(=O)(=O)Cc4c(Cl)cccc4Cl)cc32)c(C)c1C(=O)N1CCC[C@H]1CN1CCCC1 | inconclusive: 2.41 µM [inhibitor, partial curve, poor fit] | 
36 | COc1ccc(CCCN2C(=O)O[C@@H]3CN(c4cc(OC)ncn4)C[C@@H]32)cc1 | inconclusive: 1.58 µM [inhibitor, partial curve, poor fit] | 
37 | C[C@H]1CCCN1C(=O)c1nnc(COc2ccc(C#N)cc2)n1-c1ccccc1 |  | inactive: 5% [at 87.6 µM]
38 | COCCN1CC(CO)C2(CCN(Cc3ccc(Cl)cc3F)CC2)C1 (centres undefined) | inconclusive: 28.2 µM [inhibitor, single point] | 
39 | Cc1ccc(C(=O)N2CCn3c(nn(-c4ccc(Cl)cc4)c3=O)C2)cc1 | inconclusive: 3.55 µM [inhibitor, partial curve, poor fit] | 
